# Results from PubChem BioAssay AID463173 (ICCB-Longwood Screening Facility, Harvard Medical School, 2010).
# The whole screen tested about 52,000 compounds, of which about 4,300 (8.3%) were called active. No stated cut-off is given here; in the data, active means survival mostly below about 52% (no sharp cut-off); inactive means mostly above about 56%. The list shows a part of the results.
# Test system: DeltatarO mutant
# Test: S. aureus survival, RN4220 and DeltatarO strains – OD600, teichoic acid synthesis inhibitors, primary screen (AID 463173)
# Conditions: S. aureus RN4220 wild type/DeltatarO growth, OD600, 18 h, active compounds read low, screened at 18.75 µg/mL (by protocol)
row,SMILES,survival
1,COC(=O)c1ccc2c(c1)N(Cc1ccccc1)C(=O)c1ccccc1S2(=O)=O,inactive: 86%
2,CCc1ccc(-n2c(SCC(=O)NCC(C)C)nnc2-c2ccncc2)cc1,inactive: 96%
3,Cc1nc(S(=O)(=O)N2CCN(c3ccccc3F)CC2)cn1C,inactive: 117%
4,CC(=O)c1cc(-c2ccc(F)cc2)n(CCC(=O)Nc2nc3ccc(C)cc3s2)c1C,inactive: 69%
5,CC(C)OC(=O)Cn1c(C2CC2)nc2ccccc2c1=O,inactive: 106%
6,COc1ccc(-c2nc3cc(NC(=O)c4ccc(C)cc4)ccc3o2)cc1Cl,inactive: 76%
7,CCOc1ccc(Br)cc1C1NC(=O)c2c(sc3c2CCN(C)C3)N1 (stereo not drawn),inactive: 60%
8,Cc1ccc(C(=O)N2CCC(C)CC2)cc1NC(=O)c1nsc2ccccc12,inactive: 96%
9,O=C(OCc1cc(=O)n2nc(C3CC3)sc2n1)c1ccc(NC(=O)c2ccccc2F)cc1,inactive: 84%
10,CCN(c1ccccc1)S(=O)(=O)c1ccc(NC(=O)c2nc(SC(C)C)ncc2Cl)cc1,active: 44%
11,CCOC(=O)c1cnc2ccc(OCC)cc2c1Nc1ccc(OCc2ccccc2Cl)cc1,active: 9%
12,Cc1cccc(CNC(=O)CN2C(=O)CSc3c2c(C)nn3-c2ccccc2)c1,inactive: 89%
13,COc1cc(C(CC(=O)Nc2ncccc2C)N2Cc3ccccc3C2=O)cc(OC)c1OC (stereo not drawn),inactive: 79%
14,CCOc1ccc(NC(=O)CSc2oc(-c3ccc(C)cc3)nc2S(=O)(=O)c2ccc(C)cc2)cc1,inactive: 127%
15,COc1ccc(-c2cc(C(F)(F)F)nc(NCc3ccc(F)cc3)n2)cc1,active: 1%
16,Cc1ccc(O)c(-c2n[nH]c3c2C(c2ccc(F)cc2)N(Cc2ccco2)C3=O)c1 (stereo not drawn),active: 2%
17,O=C(COCc1cc(-c2cccs2)on1)Nc1cc(C(F)(F)F)ccc1Cl,inactive: 92%
18,CC(C)OCCCNC(=O)CCCN1C(=O)CCn2nc(-c3cccn3C)cc21,inactive: 119%
19,CC1CCN(S(=O)(=O)c2ccc3nc(N4CCN(c5ccc(F)cc5)CC4)ccc3c2)CC1,inactive: 88%
20,CCCC(=O)N1CCN(c2ccc(NC(=O)c3ccco3)cc2Cl)CC1,inactive: 95%

row,SMILES,survival
1,COCCCn1c(=N)c(C(=O)NC2CCCCC2)cc2c(=O)n3cc(C)ccc3nc21,inactive: 65%
2,Cc1ccc(S(=O)(=O)c2cc3cc(C(=O)Nc4ccc(C)cc4C)ccc3oc2=O)cc1,inactive: 89%
3,CC1CCCCN1CCCNC(=O)Cn1ncc2c3ccccc3n(C)c2c1=O (stereo not drawn),inactive: 96%
4,Cc1ccc(NC(=O)c2cc(S(=O)(=O)N3CCCCC3)c[nH]2)cc1F,inactive: 81%
5,Cc1nn(-c2ccccc2)c2sc(C(=O)Nc3cccc(Br)c3)cc12,active: 30%
6,Cc1nc2ncnn2c(C)c1CCC(=O)NCc1cccc(Cl)c1,inactive: 89%
7,COc1ccc(C2C=C(c3ccccc3)Nc3nc(NC(=O)/C=C/c4ccc(Cl)cc4)nn32)cc1 (stereo not drawn),inactive: 53%
8,CCOc1ccc(N2CC(c3nc4ccccc4n3CCOc3ccccc3)CC2=O)cc1 (stereo not drawn),active: 33%
9,CC(C)(C)c1cc(CN)c(C(=O)O)o1,inactive: 88%
10,O=C(CN1CCN(Cc2ccccc2)CC1)N1CCOCC1,inactive: 109%
11,Cc1nc(-c2ccc(F)cc2)sc1CCNC(=O)c1ccc(C(C)(C)C)cc1,inactive: 77%
12,Cc1ccc(Cl)cc1NS(=O)(=O)c1ccc(N2CCCCS2(=O)=O)cc1,inactive: 123%
13,CC(=O)Nc1cccc(-c2cn3cccnc3n2)c1,inactive: 77%
14,CCOc1ccc(C(=O)c2c(N)c(-c3nc(-c4ccc(OCC)cc4)cs3)c3ccccn23)cc1,inactive: 102%
15,Cc1ccc(C(=O)NCC(c2cccnc2)N2CCc3ccccc3C2)cc1C (stereo not drawn),inactive: 61%
16,Cc1ccc(Nc2nc(N)nc(CSc3nccn3C)n2)cc1,inactive: 93%
17,Cc1noc(C)c1S(=O)(=O)NCCc1csc2nc(-c3ccc(Cl)cc3)nn12,inactive: 96%
18,O=C(COc1ccc(F)cc1)Nc1ccc(Cl)c(-c2nc3ccccc3[nH]2)c1,active: 26%
19,COc1ccccc1-c1nnc(C2CCN(S(=O)(=O)c3ccc(F)c(C)c3)CC2)o1,inactive: 76%
20,CCOC(=O)N1CCN(C(=O)Cn2ncc3c4ccccc4n(Cc4ccc(F)cc4)c3c2=O)CC1,inactive: 60%

row,SMILES,survival
1,Cc1cccc(NC(=O)c2c(C)oc3ncnc(N4CCCCC4)c23)c1C,inactive: 122%
2,OCC(O)CN(c1ccccc1)c1ccccc1 (stereo not drawn),inactive: 64%
3,CCCCc1nn2c(=O)cc(COC(=O)c3ccccc3NC(=O)c3cccc(C)c3)nc2s1,inactive: 61%
4,CC(CCC(=O)O)C1CCC2C3C(O)CC4CC(O)CCC4(C)C3CC(O)C12C (stereo not drawn),inactive: 100%
5,O=C(Oc1cccc(-n2cnnn2)c1)C1CCCCC1,inactive: 94%
6,O=S(=O)(c1ccccc1)c1nc(-c2ccccc2F)oc1N1CCOCC1,inactive: 71%
7,COc1ccc(-c2cn3c(n2)sc2cc(C(=O)Nc4ccc(C)cc4C)ccc23)cc1,inactive: 59%
8,COc1ccc(CCNc2nc3cc(OC)c(OC)cc3c3nc(-c4cccnc4)nn23)cc1OC,inactive: 117%
9,COc1ccc(OC)c(NC(=O)N2CCN(Cc3nc4ccc(C)cc4o3)CC2)c1,inactive: 84%
10,COc1cc2ccccc2cc1C(=O)Nc1ccc2oc(-c3cccc(C)c3)nc2c1,active: 25%
11,CCOc1ccc(NC(=O)CCSc2nc(-c3ccc4c(c3)OCO4)cc(C(F)(F)F)n2)cc1,inactive: 63%
12,C=CCNC(=O)Nc1c[nH]c2ccccc2c1=O,inactive: 106%
13,COc1ccc(-n2c3c(cc(-c4nc(-c5ccc(Cl)cc5)cs4)c2=O)C(=O)CC(C)(C)C3)cc1Cl,inactive: 79%
14,CCOC(=O)CSc1nc2c(sc3ccccc32)c(=O)n1Cc1ccc(OC)cc1,inactive: 101%
15,Cc1cccc(NC(=O)c2sc(-n3nc(C)c(CCC(C)C)c3C)nc2C)c1,inactive: 53%
16,Nc1c(C(=O)c2ccccc2)sc(Nc2ccc(Cl)c(Cl)c2)c1C(=O)Nc1ccccc1,inactive: 94%
17,Cc1cc(=O)[nH]c(Nc2nc3ccccc3[nH]2)n1,inactive: 71%
18,N#Cc1ccccc1OCC(=O)N1CCN(c2ccccc2F)CC1,inactive: 117%
